Source: PubChem BioAssay AID686979 (National Center for Advancing Translational Sciences (NCATS), 2013)
Among all 420,000 compounds or so, about 50,000 (12%) were called active. The shares of active, inactive and inconclusive entries below differ from those in the screen. The call rests on the fitted dose curve; in most records, active means well fitted inhibition curve with a large enough effect; inconclusive means small, poorly fitted or top-dose-only effect; inactive means flat fitted curve, though single readings scatter. Potencies of inconclusive entries are left out as doubtful fits.

Assay: qHTS for Inhibitors of human tyrosyl-DNA phosphodiesterase 1 (TDP1): qHTS in cells in presence of CPT; further: nearly all actives have a fitted effect of over 55% in size
Settings: chicken DT40 Tdp1-/-;hTDP1 cells + 20 nM CPT, ATP luminescence, 48 h; activity change, negative = growth inhibition: at 46.2 µM (top of the series)
Procedure, shortened: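 Chicken DT40 Tdp1-/- cells complemented with human TDP1, 400 cells/well, exposed to compounds plus 20 nM camptothecin for at least 48 h at 37 C; viability read as ATP content by CellTiter-Glo luminescence.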
On the % scale 0 is the no-effect control and ±100 the full control effect; potency means the concentration at half of the fitted maximal effect; tags describe the fitted curve by direction and shape.

Row | Structure (SMILES) | Potency | activity change, negative = growth inhibition
1 | NC(=O)c1ccsc1NC(=O)c1ccc([N+](=O)[O-])o1 | active: 13 µM | 
2 | O=C1C=C(c2ccccc2)C[C@@H](c2ccc(Cl)cc2)C1 | inconclusive [inhibitor, partial curve, poor fit] | 
3 | CCOC(=O)[C@]12CCC=C1N(Cc1ccc(Cl)cc1Cl)C(=O)[C@H](CC(=O)NCCCN1CCCC1=O)C2 | active: 18.4 µM | 
4 | CC1(C(=O)OCC(=O)Nc2ccc(C(N)=O)cc2)CC1(Cl)Cl (stereo not given) | inactive | 
5 | COC(=O)[C@@]1(C)[C@H]2C(=O)N(Cc3ccccc3)C(=O)[C@H]2[C@H]2CN=C(SC)N21 | inconclusive [inhibitor, partial curve, poor fit] | 
6 | COc1ccc(N(Cc2ccc(N(C)C)cc2)C(=O)c2ccc(S(C)(=O)=O)cc2)cc1 | inconclusive [inhibitor, partial curve] | 
7 | O=C(OCc1ccccc1F)c1cc([N+](=O)[O-])ccc1N1CCOCC1 | inactive | 
8 | CC(C)NC1=C(Cl)C(=O)c2ccccc2C1=O | active: 18.4 µM | 
9 | O=C(Nc1ccc([N+](=O)[O-])c(NC(=O)C2CCCO2)c1)C1CCCO1 (stereo not given) | inactive | 
10 | COC(=O)[C@H](C)[C@H]1C[C@]1(C)[C@H](NC(=O)OCc1ccccc1)c1ccccc1 | inconclusive [inhibitor, single point] | 
11 | NC(Cc1ccc(C(F)(F)F)cc1)c1csc(NC(=O)Nc2ccccc2Oc2ccccc2)n1 (stereo not given) | inconclusive [inhibitor, single point] | 
12 | O=C(Nc1ccc(C(F)(F)F)cc1)c1cnc(N2CCN(c3ccccn3)CC2)c2ccccc12 | active: 20.6 µM | 
13 | O=C(NCc1ccccn1)C(=O)N/N=C/c1ccc2c(c1)OCO2 | inactive | 
14 | Cc1cc(-c2ccc(S(=O)(=O)Nc3cccc(C)c3C)s2)on1 | active: 2.91 µM | 
15 | COc1ccc(CCNC(=O)c2ccc(N(C)S(=O)(=O)c3ccc(C)cc3)cc2)cc1OC | active: 20.6 µM | 
16 | Cc1cccc(N2CCN(C(=O)c3sc4nc5n(c(=O)c4c3C)CCC5)CC2C)c1 (stereo not given) | active: 16.4 µM | 
17 | CCn1c(O)c(N=NC(=O)c2cccc(S(=O)(=O)N3CCCCC3)c2)c2ccccc21 | active: 14.6 µM | 
18 | COC(=O)C12OCC34C(CC5C(C)=C(O)C(=O)CC5(C)C3C(O)C1O)OC(=O)C(OC(=O)C=C(C)C)C24 (stereo not given) | active: 0.0651 µM | 
19 | CCOC(=O)CC(=O)CSc1nc2c(cc1C#N)CCC2 | active: 8.2 µM | 
20 | CCCCc1c(-c2cccc(Cl)c2)ncn1CCc1ccccc1OC | active: 8.2 µM | 
21 | CC(C)Cn1c(N)c(C(=O)NCC2CCCO2)c2nc3ccccc3nc21 (stereo not given) | inconclusive [inhibitor, single point] | 
22 | Clc1ccc(N2COC3c4cccc5cccc(c45)C32)cc1 (stereo not given) | inactive | 
23 | Cc1ccc(S(=O)(=O)NCc2ccccn2)c(C)c1C | inactive | 

Row | Structure (SMILES) | Potency | activity change, negative = growth inhibition
24 | CC(NC(=O)c1ccc(Cl)cc1)C(=O)NC1=NCCS1 (stereo not given) | inactive | 
25 | Cc1c(C(=O)NCc2cccc([N+](=O)[O-])c2)sc(=O)n1Cc1ccc(C(C)C)cc1 | inconclusive [inhibitor, single point] | 
26 | COc1ccc(S(=O)(=O)N2CCCCC2)cc1NC(=O)c1[nH]c(C)c(C(C)=O)c1C | inconclusive [inhibitor, single point] | 
27 | CN(C)S(=O)(=O)c1ccc(C(=O)NCC2CC2(Cl)Cl)cc1 (stereo not given) | inconclusive [inhibitor, single point] | 
28 | COC(=O)c1ccc(OCC2c3cc(OC)c(OC)cc3CCN2C(=O)c2ccc(OC)cc2)cc1 (stereo not given) | inconclusive [inhibitor, single point] | 
29 | CC(C)(C)C1CCc2nc(NC(=O)c3cccc(Cl)c3)sc2C1 (stereo not given) | inconclusive [inhibitor, single point] | 
30 | Oc1ccc(C[C@@H]2CNCCN2CCC23CC4CC(CC(C4)C2)C3)cc1 | active: 16.4 µM | 
31 | CCCCCc1c(C)nc(N2CCN(Cc3ccc4c(c3)OCO4)CC2)[nH]c1=O | inconclusive [inhibitor, single point] | 
32 | O=c1[nH]c(SCc2ccccc2)nc2c1CCCC2 | inconclusive [inhibitor, partial curve] | 
33 | C=CCC[C@@H](Cc1ccc(F)cc1)C(=O)OC[C@@H](Cc1c[nH]c2ccccc12)NC(=O)[C@H](CC=C)CC(=O)N(CCO)Cc1ccccc1 | active: 20.6 µM | 
34 | Cc1ccc(NS(=O)(=O)c2ccc3c(c2)CC(=O)N3)cc1C | inconclusive [inhibitor, partial curve, poor fit] | 
35 | OC[C@@H]1CN(CCN2CCOCC2)C[C@H](n2cnc3c(NC4CCCC4)ncnc32)O1 | inactive | 
36 | CC1CCCCC1NC(=O)CN1C(=O)NC(Cc2ccccc2)(Cc2ccccc2)C1=O (stereo not given) |  | inconclusive: -32.1% [inhibitor]
37 | O=C1C2CCC(C(O)C2)N1Cc1ccccc1 (stereo not given) | inactive | 
38 | Brc1ccc([C@H]2C=C[C@H]3CCCN4CC[C@H]2[C@@H]3[C@]42CO2)cc1 | active: 18.4 µM | 
39 | O=C(NC1CCCC1)c1ccc(CSc2nc3cccnc3n2Cc2cccc(F)c2)cc1 | inconclusive [inhibitor, single point] | 
40 | CC(=O)N1CCCC1c1nc2ccccc2n1Cc1c(F)cccc1Cl (stereo not given) | inconclusive [inhibitor, partial curve] | 
41 | COc1ccc(N(CC(=O)NC2CC3CCC2C3)S(=O)(=O)c2ccccc2)cc1OC (stereo not given) | inactive | 
42 | COc1ccc(C(=O)Nc2ccc(NC(=O)c3cccs3)cn2)cc1 | inconclusive [inhibitor, single point] | 
43 | Cc1ccc(NC(=S)NCc2ccc(Cl)cc2)c(OC(F)F)c1 | inconclusive [inhibitor, single point] | 
44 | COc1ccc(Cl)cc1-c1cc(C(=O)Nc2cc(OC)c(OC)c(OC)c2)[nH]n1 | inconclusive [inhibitor, single point] | 
45 | O=C(COCc1cc(-c2ccc3c(c2)OCO3)on1)Nc1cccnc1 | inconclusive [inhibitor, single point] | 
